{
  "source": "PubChem BioAssay AID1477",
  "about": "(National Center for Advancing Translational Sciences (NCATS), 2009)",
  "note": "Out of some 230,000 compounds screened, fewer than 10 were called active. The inconclusive results got no clear call from the source; some entries with a clear call stand among them for comparison. Calls come from the whole dose curve; as a rule, active = well fitted curve in the direction sought with a large enough effect; inconclusive = small, poorly fitted or top-dose-only effect, or effect the other way, or another doubt; inactive = no such curve, though single readings can be large or run the other way. Potencies of inconclusive entries are left out as doubtful fits.",
  "data": [
    {"target": "Runt-related transcription factor 1 (Homo sapiens) + Core-binding factor subunit beta (Homo sapiens) (UniProt Q01196+Q13951)", "sequence (Q01196 whole entry, looked up)": "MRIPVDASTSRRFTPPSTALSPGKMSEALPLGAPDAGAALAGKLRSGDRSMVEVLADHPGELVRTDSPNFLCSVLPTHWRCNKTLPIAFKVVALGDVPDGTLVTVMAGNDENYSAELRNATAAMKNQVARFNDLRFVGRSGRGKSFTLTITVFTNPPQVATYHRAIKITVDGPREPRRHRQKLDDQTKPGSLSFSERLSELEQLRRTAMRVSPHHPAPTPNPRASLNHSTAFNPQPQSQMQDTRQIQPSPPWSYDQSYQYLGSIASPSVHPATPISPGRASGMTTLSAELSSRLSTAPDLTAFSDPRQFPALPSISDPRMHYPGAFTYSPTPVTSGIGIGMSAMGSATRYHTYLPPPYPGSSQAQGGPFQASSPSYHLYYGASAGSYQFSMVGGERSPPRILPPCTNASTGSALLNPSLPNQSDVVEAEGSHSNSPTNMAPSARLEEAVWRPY", "sequence (Q13951 whole entry, looked up)": "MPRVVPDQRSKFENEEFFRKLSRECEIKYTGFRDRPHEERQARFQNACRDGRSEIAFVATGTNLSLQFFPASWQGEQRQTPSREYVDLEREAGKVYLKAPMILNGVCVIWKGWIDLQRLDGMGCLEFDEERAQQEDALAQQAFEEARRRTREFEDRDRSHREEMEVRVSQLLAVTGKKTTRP", "test": "qHTS Assay for Compounds Blocking the Interaction Between CBF-beta and RUNX1 for the Treatment of Acute Myeloid Leukemia; for activity, negative = inhibition: % of control where 0% means no effect", "details": "AlphaScreen CBFb-His/RUNX1-biotin binding, biochemical; activity, negative = inhibition: at 59.8 µM (top of the series) unless noted", "summary_of_the_method": "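Proteins preincubated together for 20 min at RT before compound addition; 15 min later, nickel and streptavidin beads were added and left 90 min prior to AlphaScreen measurement.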", "values": [
      {"compound": "CCCCNC(=S)NNC(=O)c1c(C)nc2ccccn12", "activity, negative = inhibition": "inactive: -0.243%"},
      {"compound": "CCOC(=O)NCCOc1ccc(Oc2ccccc2)cc1", "Potency": "inconclusive [activator, single point]"},
      {"compound": "O=C1CCSc2ccc(Cl)cc2N1Cc1cccc(Cl)c1", "Potency": "inconclusive [activator, single point]"},
      {"compound": "Cc1ccc(Cn2cccc(-c3nc4ccccc4s3)c2=O)cc1", "Potency": "inconclusive [activator, full curve]"},
      {"compound": "CCN1C(=O)[C@@H]2[C@H](C1=O)[C@@H]1C[C@H]3C(=O)N(CC)C(=O)[C@H]3[C@@H]3C1=C(C(=O)N1C(=O)OC(=NCC4CC4)[C@]31C)[C@@H]2C", "Potency": "inconclusive [activator, partial curve]"},
      {"compound": "CC1(C)OC(c2ccccc2)=C/C(=C/C=C2C(=O)NC(=O)NC2=O)O1", "Potency": "inconclusive [inhibitor, partial curve]"},
      {"compound": "CC1(C)C2CCC1(C)C(OCC[N+](C)(C)CC(=O)OC1CCCCC1)C2", "note": "(centres undefined)", "activity, negative = inhibition": "inactive: 13.1%"},
      {"compound": "C=CCCN(C1CCCC1)S(=O)(=O)c1ccccc1Br", "Potency": "inconclusive [activator, single point]"},
      {"compound": "O=C(COC(=O)c1cncc(Br)c1)NCc1ccco1", "Potency": "inconclusive [inhibitor, partial curve]"},
      {"compound": "CC(C)C[C@@H](CC(=O)N[C@@H](CCCN)CC(=O)N[C@@H]1CCCC[C@H]1C(=O)N[C@H](CC(=O)N[C@@H](CCC(=O)O)CC(=O)O)Cc1c[nH]c2ccccc12)NC(=O)[C@@H]1CNCC[C@H]1N", "activity, negative = inhibition": "inactive: 4.15%"},
      {"compound": "Nc1nc2c(s1)CCc1c-2cnn1-c1ccccc1", "Potency": "inconclusive [inhibitor, single point]"},
      {"compound": "O=C(CSc1ccccn1)N1CCOCC1", "Potency": "inconclusive [inhibitor, single point]"},
      {"compound": "Fc1ccccc1N1CC(c2ccccc2)C(c2cccs2)=N1", "note": "(centres undefined)", "Potency": "inconclusive [activator, partial curve]"},
      {"compound": "CSC1=NC(C)(C)C=C(/C=C/c2ccc(Cl)cc2)N1", "activity, negative = inhibition": "inactive: 24.4%"},
      {"compound": "COC(=O)C1=C(C)N(c2ccccc2)/C(=C/c2ccco2)C1=O", "activity, negative = inhibition": "inactive: -15.6%"},
      {"compound": "O=C(O)c1cccc(Cn2c(Cl)c(/C=N/NC(=O)c3ccccc3O)sc2=O)c1", "activity, negative = inhibition": "inactive: -6.17%"},
      {"compound": "CCC(=O)Nc1ccc(-n2nnnc2SCC(=O)NNC(=O)c2ccco2)cc1", "activity, negative = inhibition": "inactive: 8.7%"},
      {"compound": "CC(C)(C)OC(=O)NCCc1nnc(SCc2cccc(Cl)c2)o1", "Potency": "inconclusive [activator, single point]"},
      {"compound": "O=C(O)Cn1cccc1C(=O)c1ccccc1", "Potency": "inconclusive [inhibitor, single point]"}
    ]}
  ]
}
